# In all, about 110,000 compounds were measured (“z-score”: median about -0.1, highest 2% from about 2 on). This is one part of the list. The source made the active and inactive calls.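 Rule for the calls: active = z-score in the third read window above 3 or below -3; inactive = the rest.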
# Target: Metabotropic glutamate receptor 8 (Rattus norvegicus) (UniProt P70579)
# Assay: mGluR8 Gi/Go-coupled signaling modulation – cell-based, rat, thallium flux, HTS, primary screen (AID 488969)
# Settings: HEK293 rat mGluR8, GIRK (G protein-gated inwardly rectifying potassium channel) thallium flux, FluoZin2; at 10 µM; stronger effect = higher value; submaximal glutamate (EC20) added with thallium
# UniProt P70579, sequence (P70579 whole entry, looked up): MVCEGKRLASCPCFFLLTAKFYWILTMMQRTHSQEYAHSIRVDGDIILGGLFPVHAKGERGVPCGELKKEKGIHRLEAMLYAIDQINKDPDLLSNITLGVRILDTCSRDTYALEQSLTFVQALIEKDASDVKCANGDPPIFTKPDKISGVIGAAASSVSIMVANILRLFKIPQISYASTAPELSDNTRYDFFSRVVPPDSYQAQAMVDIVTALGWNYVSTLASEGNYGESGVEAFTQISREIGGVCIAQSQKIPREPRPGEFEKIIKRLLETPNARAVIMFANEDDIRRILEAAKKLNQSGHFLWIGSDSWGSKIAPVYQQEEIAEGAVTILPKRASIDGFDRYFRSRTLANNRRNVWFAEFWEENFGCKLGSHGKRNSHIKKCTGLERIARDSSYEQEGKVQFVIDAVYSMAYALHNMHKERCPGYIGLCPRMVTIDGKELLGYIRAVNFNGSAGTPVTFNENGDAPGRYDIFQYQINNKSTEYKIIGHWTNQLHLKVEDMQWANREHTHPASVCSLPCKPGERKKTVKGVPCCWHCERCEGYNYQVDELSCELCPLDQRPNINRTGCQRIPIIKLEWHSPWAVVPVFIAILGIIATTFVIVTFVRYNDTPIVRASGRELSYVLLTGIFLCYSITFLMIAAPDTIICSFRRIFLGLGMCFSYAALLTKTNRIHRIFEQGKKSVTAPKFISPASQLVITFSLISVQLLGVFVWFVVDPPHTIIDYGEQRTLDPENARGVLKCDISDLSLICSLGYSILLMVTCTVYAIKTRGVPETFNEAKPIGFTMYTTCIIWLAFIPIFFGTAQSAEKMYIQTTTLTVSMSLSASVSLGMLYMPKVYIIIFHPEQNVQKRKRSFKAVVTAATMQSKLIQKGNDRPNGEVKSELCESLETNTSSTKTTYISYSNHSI
row,Structure (SMILES),z-score
1,O=C(Oc1c(-c2ccccc2)oc2ccccc2c1=O)c1ccccc1,0.662
2,COc1ccc(S(=O)(=O)N(C)CC(=O)NCc2cccnc2)cc1C,1.4
3,S=C(Nc1ccccc1Cl)NC1CCN(Cc2ccccc2)CC1,-0.612
4,CCCCn1c(=O)cc(O)c2ccccc21,-1.3
5,Cc1ccccc1OCC(=O)N/N=C/c1cccn1C,2.42
6,O=C(CCCCCN1C(=O)c2ccccc2C1=O)Nc1nccs1,1.12
7,O=C(c1cc(-c2ccco2)on1)N1CCOCC1,0.971
8,O=S(=O)(NCC1CCCO1)c1ccc(Br)s1 (centres undefined),-0.145
9,CC(NC(=O)Cn1nc(C(=O)O)c2ccccc2c1=O)c1ccccc1 (centres undefined),-0.245
10,Cc1nnc2sc(-c3ccc(NC(=O)c4ccc(-c5ccc(Cl)cc5Cl)o4)cc3)nn12,-0.439
11,CCOC(=O)Cc1csc(/N=C/c2c(O)n(-c3ccc(C)cc3C)c(=O)c3ccccc23)n1,-0.0586
12,CC(C)C(=O)NCCc1nc2ccccc2n1CCCOc1ccc(Cl)cc1,-0.512
13,CC(C)CN(CC(C)C)C(=O)CS(=O)(=O)Cc1ccccc1,0.0475
14,COc1cc(Br)cc2cc(C(=O)N3CCN(c4ccccn4)CC3)c(=O)oc12,-0.0926
15,COCC(=O)Nc1sc2c(c1C(=O)OC)C(C(=O)OC)CC2 (centres undefined),-0.174
16,O=c1[nH]c(CN2CCN(c3ccccc3)CC2)nc2ccccc12,0.214
17,O=C(Nn1c(C2CCCCC2)nc2ccccc2c1=O)c1ccc(Cl)c([N+](=O)[O-])c1,-0.501
18,CC1CCN(S(=O)(=O)c2ccc3ccccc3c2)CC1,-0.637
19,CCOC(=O)c1[nH]c2ccc(OC)cc2c1NC(=S)N1CCN(c2ccccc2)CC1,-0.482
20,C=CCn1c(SCc2ccc(C(=O)Nc3nccs3)cc2)nnc1-c1ccc(C)c(Cl)c1,-0.311
21,N#Cc1c(NC(=O)C2CC=CCC2C(=O)O)sc2c1CCCCCC2 (centres undefined),0.0265
22,COc1ccc(NC(=O)C(C)N(c2ccc(C)cc2)S(C)(=O)=O)cc1 (centres undefined),0.0624
23,CC(=O)Oc1ccc(-c2csnn2)cc1,-0.443

row,Structure (SMILES),z-score
1,CCOC(=O)N1CCC(NC(=O)CCC(=O)N2CCOc3ccccc32)CC1,-0.0937
2,CCOc1ccc(-c2cn(S(=O)(=O)c3cccc4nsnc34)nc2N)cc1,-0.465
3,N#CCSc1nnc(-c2ccccc2O)n1CCc1ccccc1,-0.139
4,C#CCOC(=O)c1ccccc1C(=O)O,0.0802
5,COc1ccc(C)cc1NC(=O)C(OC(=O)c1cccc(S(=O)(=O)N(C)c2ccccc2)c1)c1ccccc1 (centres undefined),0.282
6,Cc1ccc(CSC2=CS(=O)(=O)c3ccccc3N2)cc1,0.0364
7,Cc1ccc(NCCC(=O)c2cccc([N+](=O)[O-])c2)cc1,-0.234
8,C=CCSC1=Nc2sccc2C2=NC(=O)CN12,-0.0222
9,O=C(NCc1cccs1)c1ccc(Cl)s1,0.24
10,Cc1ccccc1NC(=S)NCc1ccccc1,-0.16
11,O=C(CS(=O)(=O)Cc1ccccc1)Nc1nc2ccccc2s1,0.0746
12,O=C(Nc1nnc(SCc2ccccn2)s1)C1CC(=O)N(c2ccccc2)C1 (centres undefined),1.19
13,CCN(C(=O)c1cc2cc(OC)ccc2oc1=O)c1cccc(C)c1,-0.38
14,COc1cc(CCN2C(=O)c3cccc4cccc(c34)C2=O)c(S(=O)(=O)N2CCC(C)CC2)cc1OC,-2.51
15,COC(=O)c1cc(Br)c(=O)n(-c2ccccc2F)c1,-0.00368
16,O=C(Cc1ccccc1)NCC(=O)N1CCCCCC1,-0.585
17,COc1ccc(/C=N/NC(=O)CCc2c(C)n[nH]c2C)cc1O,-0.508
18,Cc1ccc(S(=O)(=O)NCC(=O)N2CCOCC2)cc1,-0.157
19,CCOC(=O)N1CCC(Nc2nc(OC)nc(OC)n2)CC1,-0.282
20,Cc1cc(NC(=O)CN2CCN(S(=O)(=O)c3ccc4ccccc4c3)CC2)no1,0.162
21,CC(C)(C)C1=C[C@@H](CO)C[C@@H](CO)C1,0.666
22,COc1cccc(C2N(c3cccc(Cl)c3)C(=O)C3CCCN32)c1OC (centres undefined),0.635
23,CCc1c(C)nc2nc(NC(C)=O)[nH]n2c1=O,-0.11

row,Structure (SMILES),z-score
1,O=S(=O)(/N=C/c1c(O)ccc2ccccc12)c1cccs1,-0.194
2,CCNc1nc(Sc2ccc(C)cc2)cc(C(F)(F)F)n1,-0.206
3,c1cc(C(c2nnnn2C2CCCC2)N2CCOCC2)ccn1 (centres undefined),0.629
4,O=C1CC(c2ccccc2)CC(O)=C1C=NC1CCCCC1 (centres undefined),-0.0397
5,Cc1nn(C(C)CC(=O)O)c(C)c1C (centres undefined),-0.0477
6,NC(=O)C(c1ccccc1)c1ncc(C(F)(F)F)cc1Cl (centres undefined),0.0182
7,COc1cc(/C=C/C(=O)OCC(=O)NCc2cccs2)ccc1OCC#N,-0.104
8,CCn1c(=O)cc(OCC(=O)NCc2cccnc2)c2ccccc21,-0.465
9,COC(=O)c1ccc(NC(=O)CCS(=O)(=O)c2ccc(Br)s2)cc1,0.0553
10,COc1ccc(CCNC(=O)COC(=O)c2cnc(C)cn2)cc1,-0.416
11,O=C(CCN1C(=O)c2ccccc2S1(=O)=O)Nc1ccc2c(c1)OCCO2,0.367
12,CCc1noc(N)c1C(=O)Nc1ccc(F)c(Cl)c1,0.943
13,O=C(C1CCC(N2C(=O)C3CC=CCC3C2=O)CC1)N1CCCCC1 (centres undefined),-0.555
14,O=C(Nc1ccc2c(c1)OCO2)c1ccc(Br)o1,0.0351
15,CCOC(=O)Cn1cnc2c(nnn2-c2ccc(C)cc2)c1=O,-0.131
16,CN=C1c2cc3cc(OC)ccc3n2CCN1C,0.371
17,CCC(C(=O)NC(C)(C)C)N(C(=O)Cn1nnc(-c2cccs2)n1)c1cnc2ccccc2c1 (centres undefined),-0.449
18,CC(=O)N1CCN(c2ccccc2NC(=O)COc2ccc(Cl)cc2Cl)CC1,-0.0464
19,COc1ccccc1C1CC(c2ccc(Cl)cc2Cl)Nc2nc(N)nn21 (centres undefined),1.11
20,CCCCCCNc1nc(NCc2ccco2)nc(OCC)n1,-1.43
21,COc1ccccc1C1N(c2ccc(F)cc2)C(=O)C2CCCN21 (centres undefined),0.0807
22,O=C(NCCCN1CCCC1=O)NC1CCCCC1,0.057
23,CCCCn1cnc2c([nH]c3ccccc32)c1=O,0.099

row,Structure (SMILES),z-score
1,Cc1cc(NC(=O)C2CCCN(S(=O)(=O)c3cnc[nH]3)C2)ccc1Br (centres undefined),0.143
2,C=CCOc1ccc(CNn2cn[nH]c2=S)cc1OC,1.29
3,CCc1sc(NC(=O)CN2CCOCC2)nc1-c1ccccc1,active: -4.07
4,O=C(CSc1nc2ccccc2c(=O)n1NC(=O)Cc1ccccc1)NCCc1ccccc1,-0.104
5,C/C(=N\Nc1ccc([N+](=O)[O-])cc1)c1ccco1,-0.373
6,COc1cc(NC(=O)c2cc(C3CC3)on2)c(OC)cc1Cl,1.04
7,COCC(=O)N(Cc1ccc(OC)cc1)Cc1nc2ccccc2c(=O)[nH]1,-0.418
8,CCN(CC)CCOc1cc2c(nn1)Oc1ccccc1N2C,-0.269
9,COc1cc(NC(=O)CN2C(=O)c3ccccc3C2=O)c(C(=O)O)cc1OC,-1.17
10,Cc1ccc(C)c(N2CCN(Cc3nnnn3C3CCCCC3)CC2)c1,0.591
11,C=CCn1c(SCc2ccccc2C#N)nnc1-c1cc(Br)ccc1O,-0.764
12,Cc1ccc(-n2c(=S)[nH]c3sc4c(c3c2=O)CCc2ccccc2-4)cc1,2.33
13,O=C(NCCOC(=O)C1COc2ccccc2O1)C1COc2ccccc2O1 (centres undefined),-0.735
14,CCOC(=O)N1CCN(S(=O)(=O)c2ccc(OCC(=O)OC)cc2)CC1,0.0316
15,O=C(Nc1ccccc1)N1CCC(c2nc(-c3ccc(S(=O)(=O)N4CCOCC4)cc3)no2)CC1,-0.088
16,O=C(CSc1nnc(Nc2ccccc2)s1)Nc1cccc(S(=O)(=O)N2CCCCC2)c1,-0.673
17,CC(NC(=S)Nc1ccc(S(=O)(=O)N2CCOCC2)cc1)C1CC2CCC1C2 (centres undefined),0.358
18,CN(CC(=O)O)S(=O)(=O)c1cc(Cl)ccc1Cl,-0.122
19,CCCCC1C2=C(CCCC2=O)OC2=C1C(=O)CCC2,-0.617
20,CCn1cc(Br)c(C(=O)Nc2cccc(SC)c2)n1,-0.175
21,COCc1cc(=O)n2[nH]c(SCc3ccccc3)nc2n1,-0.0885
22,CC(C)OC(=O)/C(=C\C=C\c1ccccc1)NC(=O)c1ccccc1,-0.143
23,COc1cc(C=O)ccc1OS(=O)(=O)c1ccccc1[N+](=O)[O-],-0.429

row,Structure (SMILES),z-score
1,CCOc1ccc(CCNC(=O)C2CCN(c3nnc(-n4cccc4)s3)CC2)cc1,-0.269
2,COc1cc(NC(=O)C2CCCCC2)c2ncccc2c1,-0.248
3,Brc1ccc(Cn2c(-c3cncs3)nc3ccccc32)cc1,0.106
4,Cc1cc(/C=C(\C#N)C(=O)Nc2ccccc2)c(C)n1-c1cccnc1,0.741
5,CCOc1ccc(C(OC(=O)c2ccco2)C(=O)NCc2ccc(C)cc2)cc1 (centres undefined),-0.858
6,[O-]C1=N/[N+](=C/c2ccc(Cl)cc2)CC1,0.265
7,Cc1ccc(S(=O)(=O)Nc2nc(C)c(NC(=O)OCCCl)s2)cc1,-0.0861
8,CSc1nsc(SCC(=O)N2CCc3ccccc32)n1,-0.159
9,COc1ccc2[nH]c(=S)[nH]c2c1,-1.55
10,O=C(NCc1ccccn1)c1c(O)c2c([nH]c1=O)CCCC2,-0.171
11,Cc1cccc(C(=O)CC(=O)c2cc(Cl)ccc2O)c1,active: 4.14
12,CCOC(=O)c1oc2nc(C(C)C)c3c(c2c1N)CC(C)(C)OC3,-1.89
13,CCOC(=O)NNC1CC(=O)N(c2ccc(OC)cc2)C1=O (centres undefined),-0.0998
14,CCn1c(C(C)NC(=O)c2cccs2)n[nH]c1=S (centres undefined),0.205
15,CCn1c(=O)cc(OCC(=O)Nc2cccc(C)n2)c2ccccc21,1.59
16,Cc1ccccc1CN(CC(=O)Nc1cccc([N+](=O)[O-])c1)S(=O)(=O)c1ccc(Cl)cc1,0.0331
17,Cn1c(=O)cc(SCC(=O)NCCCN2CCOCC2)c2ccc(Cl)cc21,-0.0547
18,CCOC(=O)Nc1ccc2c(CN3C(=O)NC(CC)(CC)C3=O)cc(=O)oc2c1,-0.179
19,O=c1[nH]c2ccc(S(=O)(=O)N3CCN(c4ccccc4)CC3)cc2[nH]c1=O,-0.184
20,COc1ccc(NC2(c3ccc(Cl)cc3)C(=O)c3ccccc3C2=O)cc1,-0.308
21,Nc1nc(-c2cccnc2)nn1C(=O)Cc1ccccc1,0.104
22,COc1ccc(OC(C)C(=O)N2CC(C)OC(C)C2)cc1 (centres undefined),-0.0569

# Reference: PubChem BioAssay AID488969 (Vanderbilt High Throughput Screening Facility, 2010)
